The record followed here is patent publication US20150259422A1.

Assay [1] deals with rat C-loop peptide antigen (rat). Kind of assay: ELISA on plate-coated C-loop peptide conjugate, four-parameter fit; mean ± SD, n = 3. (In an ELISA, binding on a coated surface is turned into a signal by an enzyme label.)
Assay [2] has as its target mouse C-loop peptide antigen (mouse). The assay is described as above.

As a reminder, the Kd is the equilibrium constant for the complex coming apart. Read a high Kd as weaker binding.

B1: VH5/Vκ2 Composite Human Antibody variant of HLMC (antibody, human IgG1, kappa)
heavy: QAQLVQSGAEVKKPGASVKVSCKASGYLFSNSWMNWVKQRRGAGLEWIGRIFPGDGDTNYNGKFKGRVTITADKSTSTAYMELSSLRSEDTAVYYCARWGLTRDRRLYLDYWGQGTTVTVSS[human IgG1 constant region omitted here]
light: DIVMTQSPDSLAVSLGERATINCKSSQSLLYSSNQKNYLAWYQQKPGQAPRLLIYWASTRESGVPDRFTGSGSGTDFTLTISSLQAEDVAVYYCKQYYTYPLTFGQGTKLEIKRTVAAPSVFIFPPSDEQLKSGTASVVCLLNNFYPREAKVQWKVDNALQSGNSQESVTEQDSKDSTYSLSSTLTLSKADYEKHKVYACEVTHQGLSSPVTKSFNRGEC
In turn, B1 yielded a Kd in assay [1] of 0.18 nM.

B2: VPI-2690B (antibody, human IgG1, kappa)
heavy: QVQLVQSGAEVKKPGASVKVSCKASGYLFSNSWMNWVKQRRGAGLEWIGRIFPGDGDTNYNGKFKGRVTITADKSTSTAYMELSSLRSEDTAVYYCARWGLTRDRRLYLDYWGQGTTVTVSS[human IgG1 constant region omitted here]
light: DIVMTQSPDSLAVSLGERATINCKSSQSLLYSSNQKNYLAWYQQKPGQAPRLLIYWASTRESGVPDRFTGSGSGTDFTLTISSLQAEDVAVYYCKQYYTYPLTFGQGTKLEIKRTVAAPSVFIFPPSDEQLKSGTASVVCLLNNFYPREAKVQWKVDNALQSGNSQESVTEQDSKDSTYSLSSTLTLSKADYEKHKVYACEVTHQGLSSPVTKSFNRGEC
Regarding B2, the values for the dissociation constant Kd in assay [2] and in assay [1] were 2.7 nM and 0.25 nM, respectively.
